# Reference: PubChem BioAssay AID624202 (National Center for Advancing Translational Sciences (NCATS), 2012)
# Among all 380,000 compounds or so, about 4,000 (1.1%) were called active. Inconclusive results, whose numbers are uncertain, are shown with a selection of clear calls. The call rests on the fitted dose curve; in most records, active means well fitted activation curve with a large enough effect; inconclusive means small, poorly fitted or top-dose-only effect; inactive means no such curve, though single readings can be large or run the other way. Potencies beside an inconclusive call are fits to weak or partial responses and may not hold up.
# Assay: qHTS Assay to Identify Small Molecule Activators of BRCA1 Expression; further: nearly all actives have a fitted effect of over 80% in size
# Details: MCF7-BRCA1-FFLuc reporter, luminescence, 48 h; activation: at 46.1 µM (top of the series), scaled: vehicle 0%, 10 µM genistein 100% unless noted
# How it was run: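 Compounds are tested at multiple concentrations on MCF7 BRCA1-luciferase reporter cells seeded at 2000 per well; after 48 h, a single luminescence end-point is taken and curves fitted to the normalized data.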
# Potency means the concentration at half of the fitted maximal effect; tags describe the fitted curve by direction and shape.
Structure (SMILES),Potency,activation
c1ccc(-c2cc3cc4c(cc3cn2)OCO4)cc1,"inconclusive: 0.631 µM [activator, full curve, poor fit]",
COc1cccc(N/C=C/C(=O)c2ccc(Cl)cc2)c1,"inconclusive: 1.26 µM [activator, full curve, poor fit]",
CCC1CCCCN1CC(=O)Nc1ccc2c(c1)OCCO2 (stereo not given),"inconclusive: 11.2 µM [activator, partial curve, poor fit]",
c1cncc(CSc2ccc(-c3cccs3)nn2)c1,active: 10 µM,
CCN(Cc1ccccc1)C(=S)NC(=O)c1ccccc1Br,,inactive: 0.324%
O=C(Nc1ccc(C(=O)N2CCCC2)cc1)c1ccccc1,"inconclusive: 14.1 µM [activator, single point]",
O=C1N(c2ccccc2)C[C@@H]2C[C@@H](c3cc4ccccc4o3)N3CCC[C@@]123,,inconclusive: -85.1% [activator]
CCc1ccc2nc(N3CCC(C(=O)NCCC(C)C)CC3)sc2c1,"inconclusive: 2.51 µM [activator, full curve, poor fit]",
Cc1cccc(OCC(=O)Nc2ccc(C(=O)Nc3ccccc3C(=O)O)cc2)c1,"inconclusive: 28.2 µM [activator, single point]",
COc1cccc(NC(=O)Nc2cccc(C)n2)c1,active: 12.6 µM,
O=C(CSc1nc2ccccc2s1)c1ccc(O)cc1O,"inconclusive: 7.94 µM [activator, partial curve, poor fit]",
CCN(CC)S(=O)(=O)c1ccc2c(c1)c(=O)c(C(=O)N1CCN(c3ccccc3OC)CC1)cn2C,,inactive: 7.33%
Cc1ccc(/C=C/C(=O)Nc2cc(C)on2)cc1,"inconclusive: 12.6 µM [activator, partial curve, poor fit]",
Cc1ccc2[nH]c3c(c2c1)CCN(C)C3,,inactive: -23.2%
CC1(C(=O)NCc2ccccc2)CCC(=O)N1C1CC1 (stereo not given),,inactive: 20.3%
COc1ccccc1Nc1nc(N)nc(-c2cc3ccccc3o2)n1,"inconclusive: 12.6 µM [activator, partial curve, poor fit]",
Cc1ccc(C)c(N2CCN(C(=O)c3ccc(Cn4c(=S)[nH]c5ccc(N6CCOCC6)cc5c4=O)cc3)CC2)c1,,inactive: 40.3%
Cc1nc2cc3nc(C)sc3cc2s1,"inconclusive: 3.16 µM [activator, full curve, poor fit]",
O=C(Nc1ccccc1)C(=O)Nc1cccnc1,"inconclusive: 1.26 µM [activator, full curve, poor fit]",
NS(=O)(=O)c1cccc(NC(=O)c2cc3ccccc3o2)c1,"inconclusive: 15.8 µM [activator, partial curve, poor fit]",
CN1CCC(=O)N([C@H](CSc2ccc(Br)cc2)c2ccccc2)CC1,"inconclusive: 11.2 µM [activator, partial curve, poor fit]",
CCN(C(=O)c1ccco1)c1nnc(-c2cccnc2)s1,"inconclusive: 12.6 µM [activator, partial curve, poor fit]",
Cc1cc(C(=O)CSc2nnnn2C)c(C)n1Cc1ccco1,active: 4.47 µM,
CCOC(=O)c1ccc(NC(=O)CSc2ncc(S(=O)(=O)c3ccc(C)c(Cl)c3)c(=O)[nH]2)cc1,,inactive: 18.3%
CN(CCc1ccccc1)C(=O)c1cc(COc2ccc(F)cc2Cl)on1,active: 12.6 µM,

Structure (SMILES),Potency,activation
CCc1nonc1NC(=O)c1oc2ccc(Cl)cc2c1C,"inconclusive: 15.8 µM [activator, single point]",
Cc1ccc(NC(=O)CNC(=O)c2ccco2)cc1Cl,"inconclusive: 11.2 µM [activator, single point]",
CC(=O)c1ccc(NC(=S)N2CCCC(CO)C2)cc1 (stereo not given),"inconclusive: 20 µM [activator, partial curve, poor fit]",
CCOc1n[nH]c(-c2ccccc2)n1,,inactive: 7.24%
Cc1cc(C)nc(NC(=O)/C=C/c2ccc(Cl)cc2Cl)c1,active: 6.31 µM,
O=C(CCCCl)NC(=S)Nc1ccc(N2CCOCC2)cc1,"inconclusive: 15.8 µM [activator, partial curve, poor fit]",
CNc1nc(-c2ccc3c(c2)CCN3C(=O)c2ccccc2C)cs1,active: 2 µM,
Cc1cccc(NC(=O)c2ccc3c(c2)CCN3S(C)(=O)=O)c1,"inconclusive: 8.91 µM [activator, partial curve, poor fit]",
C/C(=N\NC(=O)c1ccc2ccccc2c1)c1cccs1,"inconclusive: 1 µM [activator, full curve, poor fit]",
CN(CC(=O)Nc1c(Cl)cccc1Cl)C(=O)Cn1[nH]c(=O)c2ccccc2c1=O,,inactive: -31.7%
COc1ccc(NC(=O)c2cccs2)cc1,"inconclusive: 10 µM [activator, partial curve, poor fit]",
Fc1ccccc1CSc1nc2ccccc2[nH]1,"inconclusive: 1.58 µM [activator, full curve, poor fit]",
O=C(c1ccc2c(=O)n(CC3CCCO3)c(=S)[nH]c2c1)N1CCN(C(=O)c2ccco2)CC1 (stereo not given),,inactive: 5.47%
CCOC(=O)N/N=C/C=C/c1ccccc1,"inconclusive: 11.2 µM [activator, partial curve, poor fit]",
O=C(Nc1ccc(C(=O)O)cc1)/C(=C\C=C\c1ccccc1)NC(=O)c1ccccc1Br,active: 10 µM,
COc1cc(C2C(C(=O)Nc3ccccc3C)=C(C)Nc3nc(SCc4cc(C)ccc4C)nn32)ccc1O (stereo not given),,inactive: -2.38%
COc1ccc(-c2csc(C(O)c3ccccc3)n2)cn1 (stereo not given),active: 11.2 µM,
CC1CCCC(C)N1C(=O)COC(=O)c1ccc2c(c1)OCO2 (stereo not given),"inconclusive: 14.1 µM [activator, single point]",
O=C(NCCc1c[nH]c2ccccc12)C(=O)NCC1OCCCN1S(=O)(=O)c1ccc(F)cc1 (stereo not given),,inactive: -30.3%
CCOc1ccc(NC(=O)c2ccc(OC)cc2)cc1,"inconclusive: 10 µM [activator, partial curve, poor fit]",
CCOC(=O)c1c(/N=C/c2cc(C)ccc2O)sc2c1CCN(C)C2,,inactive: -3.34%
S=C(Nc1ccc(Nc2ccccc2)cc1)NC1CCCCCC1,,inactive: -80.1%
CSc1cccc(NC(=O)/C=C/c2ccccc2)c1,"inconclusive: 7.94 µM [activator, partial curve, poor fit]",
O=[N+]([O-])c1cccc(/C=C/c2ccc3cccc(O)c3n2)c1,"inconclusive: 3.16 µM [activator, full curve, poor fit]",
c1ccc2oc(SCc3nc4ccccc4s3)nc2c1,"inconclusive: 2.51 µM [activator, full curve, poor fit]",

Structure (SMILES),Potency,activation
Cc1cc(=O)[nH]c(SCCOc2ccc3c(c2)CCC3)n1,"inconclusive: 11.2 µM [activator, partial curve, poor fit]",
C=CCOC(=O)/C(=C\c1ccccc1)NC(=O)c1ccc(C)cc1,"inconclusive: 11.2 µM [activator, partial curve, poor fit]",
Cc1ccc(C(=O)/C=C/C(=O)c2ccc(C)cc2)cc1,"inconclusive: 25.1 µM [activator, partial curve, poor fit]",
COc1ccc(C(=O)N=C2SC3CS(=O)(=O)CC3N2c2ccc(N(C)C)cc2)cc1OC (stereo not given),"inconclusive: 31.6 µM [activator, single point]",
Cc1cc(C)c2sc(N(CCCN(C)C)C(=O)c3ccc(Br)s3)nc2c1,,inactive: -68.8%
COc1ccc(NC(=S)NC(=O)C2CCCCC2)cc1,active: 7.94 µM,
O=C(Nc1nccs1)c1ccc2ccccc2n1,,inactive: 44.5%
c1ccc2nc3c(nc2c1)[nH]c1ccccc13,"inconclusive: 10 µM [activator, partial curve, poor fit]",
Cc1cccc(N2CCN(c3ncnc4c3nc3n4CCCCC3)CC2)c1C,,inactive: -4.19%
O=C(c1cnn2ccccc12)N1CCc2ccccc21,active: 3.16 µM,
NC(N)=NC(N)=NCCc1ccccc1,,inactive: -7.83%
CSCCNC(=O)c1ccc2nc(C3CCCCC3)oc2c1,"inconclusive: 3.55 µM [activator, partial curve, poor fit]",
CC1=CC(C)(C)NC(=S)N1c1ccc(C)c(C)c1,,inactive: -17.2%
O=C(NCc1ccccn1)Nc1ccc(Br)cc1Cl,active: 11.2 µM,
O=S(=O)(c1ccc(NC(=S)N2CCOCC2)cc1)N1CCCCC1,,inactive: 1.07%
COc1cccc(-c2nn(Cc3ccccc3)cc2CO)c1,active: 12.6 µM,
CCCCc1cc(=O)oc2cc(C)cc(OCC(=O)NC(Cc3ccc(Cl)cc3)C(=O)O)c12 (stereo not given),,inactive: 1%
CC(=O)c1c(C)[nH]c(C(=O)Nc2ccc(Cl)cc2)c1C,"inconclusive: 1.78 µM [activator, partial curve, poor fit]",
CCOc1ccc(-c2cn3ccccc3n2)cc1,,inconclusive: -55.1% [activator]
CCN(CC)C(=O)CSc1nnc(-c2ccco2)o1,"inconclusive: 12.6 µM [activator, partial curve, poor fit]",
COc1ccccc1-c1nc(-c2ccncc2)no1,,"inconclusive: 76% [activator] [at 1.84 µM, scaled: vehicle 0%, 10 µM genistein 100%]"
S=C(NCCc1ccccc1)Nc1cnc2ccccc2c1,"inconclusive: 12.6 µM [activator, partial curve, poor fit]",
O=C(Nc1cccc(C(=O)N2CCN(Cc3ccccc3)CC2)c1)c1ccccc1,,inactive: -5.45%
Fc1ccc(-c2nnc(-c3ccc(Cl)cc3Cl)o2)cc1,"inconclusive: 35.5 µM [activator, single point]",
COc1ccc(OCc2cccc(C(=O)NN)c2)cc1,,inconclusive: -75% [activator]
